From PubChem BioAssay AID2546 (National Center for Advancing Translational Sciences (NCATS), 2010)
In all, about 310,000 compounds went through this assay and about 11,000 (3.5%) were called active. Inconclusive means that the source gave no clear call. Such entries were picked first, then a sample of the others. Calls come from the whole dose curve; as a rule, active = well fitted inhibition curve with a large enough effect; inconclusive = small, poorly fitted or top-dose-only effect, or effect the other way; inactive = flat fitted curve, though single readings scatter. No potency is given beside an inconclusive call; the fits are too rough.
% is set by controls: 0 for no effect and ±100 for the full control effect; potency is the fitted concentration of half-maximal effect; tags give direction and shape of the fitted curve.

Test: VP16 counterscreen qHTS for inhibitors of ROR gamma transcriptional activity;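 note: Gal4-VP16 expression switched on by copper sulfate through the metallothionein promoter; nearly all actives have a fitted effect of over 50% in size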
Details: Drosophila S2 Gal4-VP16 UAS-luciferase, luminescence, 20 h; activity, negative = inhibition: at 53.6 µM (top of the series)
In the case of `COc1ccccc1/C=N/NC(=O)Cn1cnc([N+](=O)[O-])n1`, the “activity, negative = inhibition” value is reported as inactive: -6.14%. In the case of `CCOc1cc(-c2nc(C)c(C(C)=O)n2O)ccc1OCC(=O)Nc1ccc(F)cc1`, the Potency is reported as inconclusive [inhibitor, single point]. With `Cc1cccc(N2CCN(C(=O)c3cc4ccccc4oc3=O)CC2)c1C` the Potency was inconclusive [inhibitor, single point]. With `CC(C)(C)NC(=O)c1cccc(NC(=O)CSc2ccc(Cl)cc2)c1` the Potency was inconclusive [activator, single point]. In the case of `CC(C)OC(=O)c1cccc(C(=O)OCc2ccco2)n1`, the Potency is reported as inconclusive [inhibitor, single point]. For `CCN(CC)CCNC(=O)c1ccc2c(=O)n(C3CCCC3)c(=S)[nH]c2c1`, the “activity, negative = inhibition” value was inactive: 1.02%. For `O=C(O)COc1ccc(/C=C/C(=O)c2ccc3ccccc3c2)cc1`, the Potency was inconclusive [inhibitor, single point]. In the case of `COc1ccc2nc(N3C(=O)CC(C(C)c4ccccc4)C3=O)sc2c1` (configuration not stated), the Potency is reported as inconclusive [activator, single point]. In the case of `O=C(NN1CCOCC1)c1cc(-c2ccncc2)nc2ccccc12`, the “activity, negative = inhibition” value is reported as inactive: 8.61%. In the case of `O=[N+]([O-])c1ccc2ncnc(N3CCN(Cc4ccc5c(c4)OCO5)CC3)c2c1`, the Potency is reported as inconclusive [inhibitor, single point]. In the case of `Cc1ccc(C)c(NC(=S)NC(C)C(c2cccs2)N2CCOCC2)c1` (configuration not stated), the Potency is reported as active: 11.2 µM. With `Oc1ccc(/C=N/Nc2nccnc2Cl)c(O)c1` the Potency was active: 15.8 µM. For `CCOc1ccc(CCNc2nc3c(c(=O)n(C)c(=O)n3C)n2CC)cc1OCC`, the “activity, negative = inhibition” value was inactive: 9.62%. In the case of `O=C(Nc1cccc(F)c1)N1CCN(C(=O)c2ccco2)CC1`, the “activity, negative = inhibition” value is reported as inactive: -9.32%. For `O=C(Cn1cc([N+](=O)[O-])cn1)Nc1ccc(Cn2cc(Br)cn2)cc1`, the Potency was inconclusive [activator, single point]. With `CCCCn1c2c(c(=N)c3ccccc31)CCC2` the “activity, negative = inhibition” value was inactive: 2.86%. With `CC(=O)Oc1c(Br)cc(N(C(C)=O)S(=O)(=O)c2ccccc2)c2ccccc12` the Potency was inconclusive [inhibitor, single point]. In the case of `Cn1c(=O)c2c(ncn2Cc2cccc(Cl)c2)n(C)c1=O`, the “activity, negative = inhibition” value is reported as inactive: -4.13%. With `CC(C)N(Cc1cc2ccccc2[nH]c1=O)C(=O)c1ccco1` the Potency was inconclusive [inhibitor, single point]. In the case of `COc1ccc(C(=O)N/N=C(\c2ccccc2)c2ccccn2)cc1`, the Potency is reported as active: 0.501 µM. With `COc1ccc(/C=C(\C#N)C(=O)N=CN(C)C)cc1` the “activity, negative = inhibition” value was inactive: 5.28%. With `Cc1ccc(S(=O)(=O)N/N=C/c2cc([N+](=O)[O-])ccc2O)cc1[N+](=O)[O-]` the “activity, negative = inhibition” value was inactive: -20.7%.
